# Data published in the supplement of paper PMC8728848.
# The list shows a part of the results.
# Experiments:
# Experiment in all cases: glycan array binding signal (z-score within array); higher = stronger binding
# Conditions in all cases: glycan notation: IUPAC condensed, linker removed
# [1] = molecular target: Gal(b1-4)GlcNAc(b1-3)Gal(b1-4)GlcNAc(b1-3)Gal(b1-4)GlcNAc
# Outline: (§1)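 Glycan array data came from 3228 arrays in the Consortium for Functional Glycomics database, and only arrays with an available protein sequence were kept. Glycan names were put into IUPAC-condensed notation, and columns mapping to the same glycan were averaged. The binding signal is a within-array Z-score, averaged across arrays of one protein sequence run at different concentrations or buffers and across linkers. A negative Z-score can be read as non-binding.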
# [2] = molecular target: Gal(b1-4)GlcNAc(b1-3)Gal(b1-4)GlcNAc(b1-3)Gal(b1-4)GlcNAc(b1-2)Man(a1-3)[Gal(b1-4)GlcNAc(b1-3)Gal(b1-4)GlcNAc(b1-3)Gal(b1-4)GlcNAc(b1-2)Man(a1-6)]Man(b1-4)GlcNAc(b1-4)GlcNAc
# Outline: as §1
# [3] = molecular target: Gal(b1-4)GlcNAc(b1-3)Gal(b1-4)GlcNAc(b1-3)Gal(b1-4)GlcNAc(b1-2)Man(a1-3)[Gal(b1-4)GlcNAc(b1-3)Gal(b1-4)GlcNAc(b1-3)Gal(b1-4)GlcNAc(b1-2)Man(a1-6)]Man(b1-4)GlcNAc(b1-4)[Fuc(a1-6)]GlcNAc
# Outline: as §1
# [4] = molecular target: Gal(b1-4)GlcNAc(b1-3)Gal(b1-4)GlcNAc(b1-3)Gal(b1-4)GlcNAc(b1-2)[Gal(b1-4)GlcNAc(b1-3)Gal(b1-4)GlcNAc(b1-3)Gal(b1-4)GlcNAc(b1-6)]Man(a1-6)[Gal(b1-4)GlcNAc(b1-3)Gal(b1-4)GlcNAc(b1-3)Gal(b1-4)GlcNAc(b1-2)Man(a1-3)]Man(b1-4)GlcNAc(b1-4)[Fuc(a1-6)]GlcNAc
# Outline: as §1
# [5] = molecular target: Gal(b1-4)GlcNAc(b1-3)Gal(b1-4)GlcNAc(b1-3)Gal(b1-4)GlcNAc(b1-3)Gal(b1-4)GlcNAc(b1-2)Man(a1-3)[Gal(b1-4)GlcNAc(b1-3)Gal(b1-4)GlcNAc(b1-3)Gal(b1-4)GlcNAc(b1-3)Gal(b1-4)GlcNAc(b1-2)Man(a1-6)]Man(b1-4)GlcNAc(b1-4)GlcNAc
# Outline: as §1
# [6] = molecular target: Gal(b1-4)GlcNAc(b1-3)Gal(b1-4)GlcNAc(b1-3)Gal(b1-4)GlcNAc(b1-3)Gal(b1-4)GlcNAc(b1-2)Man(a1-3)[Gal(b1-4)GlcNAc(b1-3)Gal(b1-4)GlcNAc(b1-3)Gal(b1-4)GlcNAc(b1-3)Gal(b1-4)GlcNAc(b1-2)Man(a1-6)]Man(b1-4)GlcNAc(b1-4)[Fuc(a1-6)]GlcNAc
# Outline: as §1
# [7] = molecular target: Gal(b1-4)GlcNAc(b1-3)Gal(b1-4)GlcNAc(b1-3)Gal(b1-4)GlcNAc(b1-3)Gal(b1-4)GlcNAc(b1-2)[Gal(b1-4)GlcNAc(b1-3)Gal(b1-4)GlcNAc(b1-3)Gal(b1-4)GlcNAc(b1-3)Gal(b1-4)GlcNAc(b1-6)]Man(a1-6)[Gal(b1-4)GlcNAc(b1-3)Gal(b1-4)GlcNAc(b1-3)Gal(b1-4)GlcNAc(b1-3)Gal(b1-4)GlcNAc(b1-2)Man(a1-3)]Man(b1-4)GlcNAc(b1-4)[Fuc(a1-6)]GlcNAc
# Outline: as §1
# [8] = molecular target: Gal(b1-4)GlcNAc(b1-3)Gal(b1-4)GlcNAc(b1-3)Gal(b1-4)GlcNAc(b1-3)Gal(b1-4)GlcNAc(b1-3)Gal(b1-4)GlcNAc(b1-2)Man(a1-3)[Gal(b1-4)GlcNAc(b1-3)Gal(b1-4)GlcNAc(b1-3)Gal(b1-4)GlcNAc(b1-3)Gal(b1-4)GlcNAc(b1-3)Gal(b1-4)GlcNAc(b1-2)Man(a1-6)]Man(b1-4)GlcNAc(b1-4)GlcNAc
# Outline: as §1
# [9] = molecular target: Gal(b1-4)GlcNAc(b1-3)Gal(b1-4)GlcNAc(b1-3)Gal(b1-4)GlcNAc(b1-3)Gal(b1-4)GlcNAc(b1-3)Gal(b1-4)GlcNAc(b1-2)Man(a1-3)[Gal(b1-4)GlcNAc(b1-3)Gal(b1-4)GlcNAc(b1-3)Gal(b1-4)GlcNAc(b1-3)Gal(b1-4)GlcNAc(b1-3)Gal(b1-4)GlcNAc(b1-2)Man(a1-6)]Man(b1-4)GlcNAc(b1-4)[Fuc(a1-6)]GlcNAc
# Outline: as §1
# [10] = molecular target: Gal(b1-4)GlcNAc(b1-3)Gal(b1-4)GlcNAc(b1-3)Gal(b1-4)GlcNAc(b1-3)Gal(b1-4)GlcNAc(b1-3)Gal(b1-4)GlcNAc(b1-2)[Gal(b1-4)GlcNAc(b1-3)Gal(b1-4)GlcNAc(b1-3)Gal(b1-4)GlcNAc(b1-3)Gal(b1-4)GlcNAc(b1-3)Gal(b1-4)GlcNAc(b1-6)]Man(a1-6)[Gal(b1-4)GlcNAc(b1-3)Gal(b1-4)GlcNAc(b1-3)Gal(b1-4)GlcNAc(b1-3)Gal(b1-4)GlcNAc(b1-3)Gal(b1-4)GlcNAc(b1-2)Man(a1-3)]Man(b1-4)GlcNAc(b1-4)[Fuc(a1-6)]GlcNAc
# Outline: as §1
# [11] = molecular target: Gal(b1-4)GlcNAc(b1-3)Gal(b1-4)GlcNAc(b1-3)Gal(b1-4)GlcNAc(b1-3)Gal(b1-4)GlcNAc(b1-3)Gal(b1-4)GlcNAc(b1-3)Gal(b1-4)GlcNAc(b1-2)Man(a1-3)[Gal(b1-4)GlcNAc(b1-3)Gal(b1-4)GlcNAc(b1-3)Gal(b1-4)GlcNAc(b1-3)Gal(b1-4)GlcNAc(b1-3)Gal(b1-4)GlcNAc(b1-3)Gal(b1-4)GlcNAc(b1-2)Man(a1-6)]Man(b1-4)GlcNAc(b1-4)GlcNAc
# Outline: as §1
# [12] = molecular target: Gal(b1-4)GlcNAc(b1-3)Gal(b1-4)GlcNAc(b1-3)GalNAc
# Outline: as §1
# [13] = molecular target: Gal(b1-4)GlcNAc(b1-3)Gal(b1-4)GlcNAc(b1-3)[Gal(b1-4)GlcNAc(b1-3)Gal(b1-4)GlcNAc(b1-6)]GalNAc
# Outline: as §1
# [14] = molecular target: Gal(b1-4)GlcNAc(b1-3)Gal(b1-4)GlcNAc(b1-6)[Gal(b1-3)]GalNAc
# Outline: as §1
# [15] = molecular target: Gal(b1-4)GlcNAc(b1-3)Gal(b1-4)[Fuc(a1-3)]GlcNAc(b1-3)Gal(b1-4)[Fuc(a1-3)]GlcNAc
# Outline: as §1
# [16] = molecular target: Gal(b1-4)GlcNAc(b1-3)GalNAc
# Outline: as §1
# [17] = molecular target: Gal(b1-4)GlcNAc(b1-3)[Fuc(a1-3)GlcNAc(b1-6)]Gal(b1-4)Glc
# Outline: as §1
# [18] = molecular target: Gal(b1-4)GlcNAc(b1-3)[Gal(b1-4)GlcNAc(b1-6)]Gal(b1-4)GlcNAc
# Outline: as §1
# [19] = molecular target: Gal(b1-4)GlcNAc(b1-3)[Gal(b1-4)GlcNAc(b1-6)]GalNAc
# Outline: as §1
# [20] = molecular target: Gal(b1-4)GlcNAc(b1-3)[GlcNAc(b1-6)]Gal(b1-4)GlcNAc
# Outline: as §1
# [21] = molecular target: Gal(b1-4)GlcNAc(b1-6)Gal(b1-4)GlcNAc
# Outline: as §1
# [22] = molecular target: Gal(b1-4)GlcNAc(b1-6)Gal(b1-4)GlcNAc(b1-6)GalNAc
# Outline: as §1
# [23] = molecular target: Gal(b1-4)GlcNAc(b1-6)GalNAc
# Outline: as §1
binder,measurement,setting,value
"ECA (Erythrina cristagalli), P83410 (protein) VETISFSFSEFEPGNDNLTLQGAALITQSGVLQLTKINQNGMPAWDSTGRTLYTKPVHMWDSTTGTVASFETRFSFSIEQPYTRPLPADGLVFFMGPTKSKPAQGYGYLGVFNNSKQDNSYQTLAVEFDTFSNPWDPPQVPHIGIDVNSIRSIKTQPFQLDNGQVANVVIKYDAPSKILHVVLVYPSSGAIYTIAEIVDVKQVLPDWVDVGLSGATGAQRDAAETHDVYSWSFQASLPE",glycan array binding signal (z-score),[1],0.952
same,glycan array binding signal (z-score),[2],4.58
same,glycan array binding signal (z-score),[3],0.523
same,glycan array binding signal (z-score),[4],1.81
same,glycan array binding signal (z-score),[5],2.22
same,glycan array binding signal (z-score),[6],0.87
same,glycan array binding signal (z-score),[7],0.893
same,glycan array binding signal (z-score),[8],0.388
same,glycan array binding signal (z-score),[9],0.209
same,glycan array binding signal (z-score),[10],2.44
same,glycan array binding signal (z-score),[11],0.267
same,glycan array binding signal (z-score),[12],2.11
same,glycan array binding signal (z-score),[13],4.2
same,glycan array binding signal (z-score),[14],4.88
same,glycan array binding signal (z-score),[15],1.88
same,glycan array binding signal (z-score),[16],0.923
same,glycan array binding signal (z-score),[17],-0.179
same,glycan array binding signal (z-score),[18],-0.382
same,glycan array binding signal (z-score),[19],5.59
same,glycan array binding signal (z-score),[20],-0.141
same,glycan array binding signal (z-score),[21],-0.152
same,glycan array binding signal (z-score),[22],5.39
same,glycan array binding signal (z-score),[23],0.935
